# Data taken from the supplement of paper PMC10441789.
# The other results are listed elsewhere or left out. Antibody binding of pooled human sera (four to six donors per pool; dilution not stated) to peptides of the Trypanosoma cruzi antigen TSSA on microarrays. Quantile-normalised fluorescence in arbitrary units, mean of duplicate arrays; higher = more binding. No active / inactive call. The uninfected pools are read here as the healthy donors of the same country. The strongest signals lie near the top of the scale (about 60,000).
# Experiments:
# Assay in all cases: antibody binding signal (normalised fluorescence) (arbitrary fluorescence units); higher = stronger serum antibody binding to peptide
# [1] = tested on: pooled sera of chronic Chagas disease patients, Bolivia
# Description: (§1)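 Microarray of 15-residue peptides over residues 30-55 of Trypanosoma cruzi TSSAII, each with 1 to 10 substitutions at naturally variable positions, probed with one serum pool per country.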
# [2] = tested on: pooled sera of chronic Chagas disease patients, Brazil
# Description: as §1
# [3] = tested on: pooled sera of chronic Chagas disease patients, Colombia
# Description: as §1
# [4] = tested on: pooled sera of chronic Chagas disease patients, Mexico
# Description: as §1
# [5] = tested on: pooled sera of chronic Chagas disease patients, USA
# Description: as §1
# [6] = tested on: pooled sera of uninfected people, Argentina
# Description: as §1
# [7] = tested on: pooled sera of uninfected people, Bolivia
# Description: as §1
# [8] = tested on: pooled sera of uninfected people, Brazil
# Description: as §1
# [9] = tested on: pooled sera of uninfected people, Colombia
# Description: as §1
# [10] = tested on: pooled sera of uninfected people, Mexico
# Description: as §1
# [11] = tested on: pooled sera of uninfected people, USA
# Description: as §1
Sequence,antibody binding signal [1],antibody binding signal [2],antibody binding signal [3],antibody binding signal [4],antibody binding signal [5],antibody binding signal [6],antibody binding signal [7],antibody binding signal [8],antibody binding signal [9],antibody binding signal [10],antibody binding signal [11]
PSGKDKKPATGEAPS,32200,42300,3460,4850,31200,823,867,157,182,107,134
TDNKPAAGGTPSQPG,447,5480,993,214,351,189,426,1030,455,531,115
TEKKAAAGGTPSQPG,217,401,8990,698,2770,309,137,1720,229,494,294
PPSGKDKKPAAGGTP,507,773,1410,35000,1180,223,418,666,252,79.7,119
KEKKPATGGAPSPPG,370,468,468,969,904,274,392,98.9,80.8,89,290
DKKTATGEAPSQPGA,19200,39200,179,520,20300,267,107,185,141,326,170
SGKDNKPAAGGTPSQ,312,5030,1800,1070,1100,363,546,606,746,252,125
TDNKTATGGTPSQPG,1010,797,1960,330,726,587,367,668,273,1500,155
TISTPPSGKDKKAAT,593,704,256,43000,505,167,371,121,152,99,120
GKEKKAAAGGAPSQS,205,240,4330,2060,1290,118,83.8,132,90.4,86,119
KKPATGETPSPPGAS,4690,21300,157,235,16800,435,732,104,233,512,788
SGTDKKTAAGETPSP,415,1030,1860,413,2200,153,245,244,441,292,539
EKKTATGETPSPPGA,379,1060,344,429,6950,345,740,149,116,246,1150
ENKAATGEAPSQPGA,44700,47200,227,233,31600,268,139,192,194,194,144
KDKKPATGEAPSQPG,35000,45100,354,265,28800,696,300,193,172,128,131
TDKKAATGGAPSPSG,266,446,2100,1000,1820,328,712,150,718,123,132
KDNKTATGGAPSQPG,272,751,1880,223,317,356,166,153,180,103,158
KDNKPAAGGTPSPPG,191,174,865,149,225,225,253,464,289,129,109
SGKDNKTAAGGTPSQ,305,928,5700,1150,3390,231,130,286,541,480,156
PSGTENKAAAGETPS,27800,38000,2530,2670,9750,1020,551,250,443,372,279
GKEKKAATGEAPSPS,3460,16700,4210,5360,19100,338,81.6,87,225,76.2,92.4
SGTDNKTATGGAPSQ,688,43000,567,489,562,313,777,1500,191,223,262
TISTPPSGTDKKPAA,8240,44600,13500,49800,9640,2310,303,367,331,2950,693
TDNKPATGGTPSPPG,564,2230,280,468,231,213,607,507,388,296,133
